These results are taken from ChEMBL document CHEMBL4888484, “Replenishing the malaria drug discovery pipeline: Screening and hit evaluation of the MMV Hit Generation Library 1 (HGL1) against asexual blood stage Plasmodium falciparum ,using a nano luciferase reporter read-out” (2022).

The test deals with Plasmodium falciparum. Nature of the test: Primary screen in NF54 nanoGlo assay, in single point, at 2uM, 72h; a lower Z score goes with more inhibition. The test is classed as functional, Erythrocyte. The note with it: timepoint 72 hour.

Hit rate of the full screen: of about 150,000 compounds, about 540 (0.36%) showed an effect of 50% or more. This is one part of the list.

By % Inhibition is commonly meant the drop in the measured response relative to a control, in per cent. Turning to `CCN(Cc1ccc(Br)c(F)c1)S(C)(=O)=O`, the “% Inhibition” value is listed as -3% and the Z score was determined as 0.38.

On to `C#Cc1ccc(C(=O)N[C@H]2CCN(CC)CC2(F)F)cc1`, for which the “% Inhibition” value was determined as 7% and the Z score was -0.93.

Take `O=C([C@H]1CCc2nncn2C1)N1CCC(c2nc(C(F)(F)F)cs2)CC1`: the “% Inhibition” value was -15% and the Z score was found to be 1.81.

On to `CC(C)NC(=O)N(C)Cc1ccc(F)cc1`, for which the “% Inhibition” value worked out at 34% and the Z score was -0.7.

In the case of `Cn1nnc2c(N3CC[C@H](NC(=O)C(F)F)C34CCCC4)ncnc21`, the “% Inhibition” value was -17% and the Z score is listed as 2.31.

As for `Cc1nnc2cc(N3CCN(S(=O)(=O)c4ccccc4F)CC3)cnn12`, the “% Inhibition” value is 8% and the Z score is given as -0.91.

`CC(C)(C)OC[C@@H](O)CN1C(C)(C)CCCC1(C)C`: the “% Inhibition” value was -6% and the Z score is given as 0.63.

For the compound `Cc1cc2c(cc1-c1ccnc(NCCN3CCOCC3)n1)NC(C)(C)C[C@@H]2C`, the “% Inhibition” value is recorded as -16% and the Z score came to 2.05.

As to `CCOC(=O)N1CCC(NCc2c[nH]nc2-c2ccc(OC)cc2F)CC1`, the “% Inhibition” value was -6% and the Z score is recorded as 0.79.

Take `C[C@H](Oc1ccccc1)C(=O)Nc1cnns1`: the “% Inhibition” value is given as 7% and the Z score is on record as -0.99.

As to `O=C(NCC1CC1)c1cn[nH]c1-c1ccccc1`, where the note is “2 µM”, the “% Inhibition” value was determined as 6% and the Z score is recorded as -0.76.

As for `CC(C)[C@@H](C(=O)Nc1cc(Cl)ccc1O)N1CCCS1(=O)=O`, the “% Inhibition” value is listed as -17% and the Z score came to 2.29.

`COc1cncc(S(=O)(=O)NCCc2cnoc2)c1`: the “% Inhibition” value is -2% and the Z score is 0.29.

On to `CC(C)CC1CCN(C(=O)c2coc(S(=O)(=O)N(C)C)c2)CC1`, for which the “% Inhibition” value stood at 18% and the Z score is listed as -1.56.

Turning to `O=C(N[C@H]1CCC[C@H]1Oc1cc(F)cc(F)c1)c1cccc[n+]1[O-]`, the “% Inhibition” value is on record as -3% and the Z score is 0.55.

Regarding `CN(C)c1n[nH]c(NCc2csc(C3CC3)n2)n1`, the “% Inhibition” value is -1% and the Z score turned out to be 0.14.

For `O=C(CC[C@H]1CCCN(c2ccncc2)C1)NCc1ccccc1Cl`, the “% Inhibition” value was -10% and the Z score turned out to be 1.41.

For the compound `Cn1cc(-c2ccccc2)cc1C(=O)NCc1ccc(N2CCOCC2)cc1`, the “% Inhibition” value is -3% and the Z score is 0.44.

As to `CO[C@H]1COC[C@@H]1NC(=O)c1ccn(C)c1C`, the “% Inhibition” value worked out at 1% and the Z score is recorded as -0.11.

Regarding `O=C(Cn1cnc2ccccc21)NCc1cncc(-c2ccco2)c1`, the “% Inhibition” value was -8% and the Z score worked out at 1.53.

In the case of `COc1ccc(-c2noc([C@@H]3Cc4[nH]cnc4CN3Cc3ccc(F)cc3)n2)cc1`, the “% Inhibition” value worked out at 32% and the Z score is reported as -3.65.

Consider `O=c1c(-c2nc(-c3ccc(Br)cc3)no2)c[nH]c2ccccc12`, for which the “% Inhibition” value is given as -10% and the Z score came out at 1.63.

`O=C(NCc1cccs1)c1cc(N2CCCC2)ncn1`: the “% Inhibition” value was -2% and the Z score is 0.26.

Regarding `O=C(Nc1ccc2c(c1)OCO2)N1CCC(Oc2nc3ccccc3s2)CC1`, the “% Inhibition” value is given as -15% and the Z score was determined as 2.13.

Consider `CC[C@H](C)S(=O)(=O)NC(=O)Cc1c(C)noc1C`, for which the “% Inhibition” value was found to be 32% and the Z score was -0.9.

For `CC(C)(C)[C@H](NCc1nnsc1Cl)C(N)=O`, the “% Inhibition” value was -10% and the Z score was 1.41.

With `O=C(Nc1cc(Cl)cc(Cl)c1)N1CCCCCC1`, the “% Inhibition” value stood at 2% and the Z score is recorded as -0.43.

Consider `C[C@@H](C(=O)N1CC(C)(C)Oc2cc(Br)ccc21)n1cncn1`, for which the “% Inhibition” value is given as -4% and the Z score was determined as 0.7.

Consider `CC(C)[C@H](Nc1ccc(C(F)(F)F)cc1Cl)C(=O)NCc1nnc2ccccn12`, for which the “% Inhibition” value is on record as -13% and the Z score is on record as 1.4.

Consider `CC(C(=O)NC1C=CCCC1)C(C)C(=O)NC1C=CCCC1` (stereo unspecified), for which the “% Inhibition” value is recorded as -38% and the Z score amounted to 4.44.

As to `Cc1cccc(-n2nc(CC(N)=O)nc2[C@@]2(C)CCN(C)C2)c1C`, the “% Inhibition” value is listed as -13% and the Z score was 1.8.

In the case of `CCc1nnc(-c2cc(NC(=O)Cc3ccc(C)cc3)c(C)s2)o1`, the “% Inhibition” value is -11% and the Z score is on record as 1.05.

For the compound `CC[C@H]1CCc2c(c(-c3cccc(O)c3)nc3c(-c4ccc(Cl)cc4)cnn23)C1`, the “% Inhibition” value came to 4% and the Z score is -0.53.

On to `Cc1cc(CNC(=O)CC(C)(C)C)c(C)o1`, for which the “% Inhibition” value is on record as 7% and the Z score is given as -0.95.

`COc1ccc(OC)c2c1cc1n2C[C@@](C)(C(=O)NC2CCCC2)N(CCc2ccccc2)C1=O`: the “% Inhibition” value turned out to be 0% and the Z score amounted to 0.05.

Regarding `COc1ccc(C(=O)N2C[C@H](c3nnc(C(C)C)o3)C3(CCN(C)CC3)C2)cc1F`, the “% Inhibition” value is 6% and the Z score is recorded as -0.99.

`O=S(=O)(NC[C@H]1CCCCN1)c1cccc(F)c1F`: the “% Inhibition” value is listed as -11% and the Z score was determined as 1.53.

Turning to `Cc1cc(C)c[n+](CC(=O)c2ccc(-c3ccccc3)cc2)c1`, the “% Inhibition” value is -8% and the Z score turned out to be 0.93.

Regarding `Cc1ccc(Nc2nc(N)nc(Cn3cnc(C)c3C)n2)cc1`, the “% Inhibition” value is -3% and the Z score came to 0.51.

For the compound `CCCN(CCC)c1ncc(C(=O)O)cc1NS(=O)(=O)c1ccc(F)c(F)c1`, the “% Inhibition” value is -12% and the Z score is reported as 1.14.

Take `CCc1nc(C)c(-c2nc(CCc3ccccc3)no2)s1`: the “% Inhibition” value was -4% and the Z score is 0.52.

Regarding `CCN(CC(=O)Nc1ccc2c(c1)OCCCO2)Cc1nc2cc(Cl)ccc2c(=O)[nH]1`, the “% Inhibition” value came out at 9% and the Z score is on record as -1.1.

With `CC(C)C1OCCCC1CNc1ccc(C#N)nc1` (stereo unspecified), the “% Inhibition” value is listed as -7% and the Z score stood at 0.92.
